# In the supplement of paper PMC8728848:
# The list shows a part of the results.
# How the values were obtained:
# Assay in all cases: glycan array binding signal (z-score within array); higher = stronger binding
# Conditions in all cases: glycan notation: IUPAC condensed, linker removed
# [1] = molecular target: Fuc(a1-2)[Gal(a1-3)]Gal(b1-4)GlcNAc(b1-2)Man(a1-3)[Fuc(a1-2)[Gal(a1-3)]Gal(b1-4)GlcNAc(b1-2)Man(a1-6)]Man(b1-4)GlcNAc(b1-4)[Fuc(a1-6)]GlcNAc
# Method in brief: (§1)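 From the Consortium for Functional Glycomics database, 3228 arrays were curated, keeping only those whose protein sequence was available. Binding is given as a within-array Z-score averaged across arrays sharing a protein sequence and across linkers. Negative Z-scores can be read as non-binding.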
# [2] = molecular target: Fuc(a1-2)[Gal(a1-3)]Gal(b1-4)GlcNAc(b1-3)GalNAc
# Method in brief: as §1
# [3] = molecular target: Fuc(a1-2)[Gal(a1-3)]Gal(b1-4)GlcNAc(b1-3)[Fuc(a1-2)[Gal(a1-3)]Gal(b1-4)GlcNAc(b1-6)]GalNAc
# Method in brief: as §1
# [4] = molecular target: Fuc(a1-2)[Gal(a1-3)]Gal(b1-4)GlcNAc(b1-6)GalNAc
# Method in brief: as §1
# [5] = molecular target: Fuc(a1-2)[Gal(a1-3)]Gal(b1-4)[Fuc(a1-3)]Glc
# Method in brief: as §1
# [6] = molecular target: Fuc(a1-2)[Gal(a1-3)]Gal(b1-4)[Fuc(a1-3)]GlcNAc
# Method in brief: as §1
# [7] = molecular target: Fuc(a1-2)[Gal(a1-3)]Gal(b1-4)[Fuc(a1-3)]GlcNAc(b1-3)GalNAc
# Method in brief: as §1
# [8] = molecular target: Fuc(a1-2)[Gal(a1-4)]Gal(b1-4)GlcNAc
# Method in brief: as §1
# [9] = molecular target: Fuc(a1-2)[GalNAc(a1-3)]Gal
# Method in brief: as §1
# [10] = molecular target: Fuc(a1-2)[GalNAc(a1-3)]Gal(b1-3)GalNAc(a1-3)[Fuc(a1-2)]Gal(b1-4)GlcNAc
# Method in brief: as §1
# [11] = molecular target: Fuc(a1-2)[GalNAc(a1-3)]Gal(b1-3)GalNAc(b1-3)Gal(a1-4)Gal(b1-4)Glc
# Method in brief: as §1
# [12] = molecular target: Fuc(a1-2)[GalNAc(a1-3)]Gal(b1-3)GlcNAc
# Method in brief: as §1
# [13] = molecular target: Fuc(a1-2)[GalNAc(a1-3)]Gal(b1-3)GlcNAc(b1-2)Man(a1-3)[Fuc(a1-2)[GalNAc(a1-3)]Gal(b1-3)GlcNAc(b1-2)Man(a1-6)]Man(b1-4)GlcNAc(b1-4)GlcNAc
# Method in brief: as §1
# [14] = molecular target: Fuc(a1-2)[GalNAc(a1-3)]Gal(b1-3)GlcNAc(b1-2)Man(a1-3)[Fuc(a1-2)[GalNAc(a1-3)]Gal(b1-3)GlcNAc(b1-2)Man(a1-6)]Man(b1-4)GlcNAc(b1-4)[Fuc(a1-6)]GlcNAc
# Method in brief: as §1
# [15] = molecular target: Fuc(a1-2)[GalNAc(a1-3)]Gal(b1-3)GlcNAc(b1-3)GalNAc
# Method in brief: as §1
# [16] = molecular target: Fuc(a1-2)[GalNAc(a1-3)]Gal(b1-3)GlcNAc(b1-6)GalNAc
# Method in brief: as §1
# [17] = molecular target: Fuc(a1-2)[GalNAc(a1-3)]Gal(b1-4)Glc
# Method in brief: as §1
# [18] = molecular target: Fuc(a1-2)[GalNAc(a1-3)]Gal(b1-4)GlcNAc
# Method in brief: as §1
# [19] = molecular target: Fuc(a1-2)[GalNAc(a1-3)]Gal(b1-4)GlcNAc(b1-2)Man
# Method in brief: as §1
# [20] = molecular target: Fuc(a1-2)[GalNAc(a1-3)]Gal(b1-4)GlcNAc(b1-2)Man(a1-3)[Fuc(a1-2)[GalNAc(a1-3)]Gal(b1-4)GlcNAc(b1-2)Man(a1-6)]Man(b1-4)GlcNAc(b1-4)GlcNAc
# Method in brief: as §1
# [21] = molecular target: Fuc(a1-2)[GalNAc(a1-3)]Gal(b1-4)GlcNAc(b1-2)Man(a1-3)[Fuc(a1-2)[GalNAc(a1-3)]Gal(b1-4)GlcNAc(b1-2)Man(a1-6)]Man(b1-4)GlcNAc(b1-4)[Fuc(a1-6)]GlcNAc
# Method in brief: as §1
# [22] = molecular target: Fuc(a1-2)[GalNAc(a1-3)]Gal(b1-4)GlcNAc(b1-3)Gal(b1-4)GlcNAc
# Method in brief: as §1
# [23] = molecular target: Fuc(a1-2)[GalNAc(a1-3)]Gal(b1-4)GlcNAc(b1-3)Gal(b1-4)GlcNAc(b1-3)Gal(b1-4)GlcNAc
# Method in brief: as §1
# [24] = molecular target: Fuc(a1-2)[GalNAc(a1-3)]Gal(b1-4)GlcNAc(b1-3)GalNAc
# Method in brief: as §1
# [25] = molecular target: Fuc(a1-2)[GalNAc(a1-3)]Gal(b1-4)GlcNAc(b1-3)[Fuc(a1-2)[GalNAc(a1-3)]Gal(b1-4)GlcNAc(b1-6)]GalNAc
# Method in brief: as §1
# [26] = molecular target: Fuc(a1-2)[GalNAc(a1-3)]Gal(b1-4)GlcNAc(b1-6)GalNAc
# Method in brief: as §1
# [27] = molecular target: Fuc(a1-2)[GalNAc(a1-3)]Gal(b1-4)[Fuc(a1-3)]GlcNAc
# Method in brief: as §1
# [28] = molecular target: Fuc(a1-2)[GalNAc(a1-3)]Gal(b1-4)[Fuc(a1-3)]GlcNAc(b1-3)GalNAc
# Method in brief: as §1
# [29] = molecular target: Fuc(a1-2)[GalNAc(a1-4)]Gal(b1-4)GlcNAc
# Method in brief: as §1
# [30] = molecular target: Fuc(a1-2)[GalNAc(b1-3)]Gal
# Method in brief: as §1
# [31] = molecular target: Fuc(a1-3)GlcNAc
# Method in brief: as §1
# [32] = molecular target: Fuc(a1-3)[Gal(b1-4)]Glc6S
# Method in brief: as §1
# [33] = molecular target: Fuc(a1-3)[Gal(b1-4)]GlcNAc
# Method in brief: as §1
# [34] = molecular target: Fuc(a1-3)[Gal(b1-4)]GlcNAc(b1-2)Man
# Method in brief: as §1
# [35] = molecular target: Fuc(a1-3)[Gal(b1-4)]GlcNAc(b1-2)Man(a1-3)[Fuc(a1-3)[Gal(b1-4)]GlcNAc(b1-2)Man(a1-6)]Man(b1-4)GlcNAc(b1-4)GlcNAc
# Method in brief: as §1
# [36] = molecular target: Fuc(a1-3)[Gal(b1-4)]GlcNAc(b1-2)Man(a1-3)[Fuc(a1-3)[Gal(b1-4)]GlcNAc(b1-2)Man(a1-6)]Man(b1-4)GlcNAc(b1-4)[Fuc(a1-6)]GlcNAc
# Method in brief: as §1
# [37] = molecular target: Fuc(a1-3)[Gal(b1-4)]GlcNAc(b1-3)Gal(b1-3)[Fuc(a1-4)]GlcNAc
# Method in brief: as §1
# [38] = molecular target: Fuc(a1-3)[Gal(b1-4)]GlcNAc(b1-3)Gal(b1-4)[Fuc(a1-3)]GlcNAc
# Method in brief: as §1
# [39] = molecular target: Fuc(a1-3)[Gal(b1-4)]GlcNAc(b1-3)Gal(b1-4)[Fuc(a1-3)]GlcNAc(b1-3)Gal(b1-4)[Fuc(a1-3)]GlcNAc
# Method in brief: as §1
# [40] = molecular target: Fuc(a1-3)[Gal(b1-4)]GlcNAc(b1-3)GalNAc
# Method in brief: as §1
# [41] = molecular target: Fuc(a1-3)[Gal(b1-4)]GlcNAc(b1-6)GalNAc
# Method in brief: as §1
# [42] = molecular target: Fuc(a1-3)[Gal(b1-4)]GlcNAc(b1-6)[Gal(b1-3)GlcNAc(b1-3)]Gal(b1-4)Glc
# Method in brief: as §1
# [43] = molecular target: Fuc(a1-3)[Gal(b1-4)]GlcNAc6S
# Method in brief: as §1
# [44] = molecular target: Fuc(a1-3)[Gal3S(b1-4)]Glc
# Method in brief: as §1
# [45] = molecular target: Fuc(a1-3)[Gal3S(b1-4)]GlcNAc
# Method in brief: as §1
binder,measurement,setting,value
OGAN (protein) MVQKESQATLEERESELSSNPAASAGASLEPPAAPAPGEDNPAGAGGAAVAGAAGGARRFLCGVVEGFYGRPWVMEQRKELFRRLQKWELNTYLYAPKDDYKHRMFWREMYSVEEAEQLMTLISAAREYEIEFIYAISPGLDITFSNPKEVSTLKRKLDQVSQFGCRSFALLFNDIDHNMCAADKEVFSSFAHAQVSITNEIYQYLGEPETFLFCPTEYCGTFCYPNVSQSPYLRTVGEKLLPGIEVLWTGPKVVSKEIPVESIEEVSKIIKRAPVIWDNIHANDYDQKRLFLGPYKGRSTELIPRLKGVLTNPNCEFEANYVAIHTLATWYKSNMNGVRKDVVMTDSEDSTVSIQIKLENEGSDEDIETDVLYSPQMALKLALTEWLQEFGVPHQY,glycan array binding signal (z-score),[1],-0.051
same,glycan array binding signal (z-score),[2],-0.067
same,glycan array binding signal (z-score),[3],0.056
same,glycan array binding signal (z-score),[4],-0.066
same,glycan array binding signal (z-score),[5],-0.066
same,glycan array binding signal (z-score),[6],-0.069
same,glycan array binding signal (z-score),[7],-0.076
same,glycan array binding signal (z-score),[8],-0.108
same,glycan array binding signal (z-score),[9],-0.072
same,glycan array binding signal (z-score),[10],23.3
same,glycan array binding signal (z-score),[11],7.17
same,glycan array binding signal (z-score),[12],-0.02
same,glycan array binding signal (z-score),[13],-0.063
same,glycan array binding signal (z-score),[14],-0.056
same,glycan array binding signal (z-score),[15],-0.055
same,glycan array binding signal (z-score),[16],-0.047
same,glycan array binding signal (z-score),[17],-0.068
same,glycan array binding signal (z-score),[18],-0.083
same,glycan array binding signal (z-score),[19],-0.069
same,glycan array binding signal (z-score),[20],-0.027
same,glycan array binding signal (z-score),[21],-0.064
same,glycan array binding signal (z-score),[22],-0.071
same,glycan array binding signal (z-score),[23],-0.044
same,glycan array binding signal (z-score),[24],-0.027
same,glycan array binding signal (z-score),[25],-0.123
same,glycan array binding signal (z-score),[26],-0.043
same,glycan array binding signal (z-score),[27],-0.028
same,glycan array binding signal (z-score),[28],-0.035
same,glycan array binding signal (z-score),[29],-0.033
same,glycan array binding signal (z-score),[30],-0.047
same,glycan array binding signal (z-score),[31],-0.022
same,glycan array binding signal (z-score),[32],-0.046
same,glycan array binding signal (z-score),[33],-0.026
same,glycan array binding signal (z-score),[34],-0.077
same,glycan array binding signal (z-score),[35],-0.031
same,glycan array binding signal (z-score),[36],0.025
same,glycan array binding signal (z-score),[37],-0.046
same,glycan array binding signal (z-score),[38],-0.042
same,glycan array binding signal (z-score),[39],-0.08
same,glycan array binding signal (z-score),[40],-0.048
same,glycan array binding signal (z-score),[41],-0.022
same,glycan array binding signal (z-score),[42],-0.065
same,glycan array binding signal (z-score),[43],-0.052
same,glycan array binding signal (z-score),[44],-0.07
same,glycan array binding signal (z-score),[45],0.055
